Laboratory results from PubChem BioAssay (NCATS).
Several values for one entry are separate records, joined by “and”; a condition that tells them apart may be missing. Identical values can stand only once. Inconclusive means that the source gave no clear call. Such entries were picked first, then a sample of the others. For part of these data: Potencies beside an inconclusive call are fits to weak or partial responses and may not hold up. Activity calls are given as the source filed them. Unless noted, calls follow the shape of the dose curve; as a rule, active = well fitted curve in the direction sought with a large enough effect; inconclusive = small, poorly fitted or top-dose-only effect, or another doubt; inactive = no such curve, though single readings can be large; an effect the other way counts as inactive or inconclusive.

What was measured:
[1] = qHTS Screen of the MIPE 4.0 Collection Against Ewings Sarcoma (RDES) (AID 1259252); also: nearly all actives have a fitted effect of over 35% in size; also: potency is read from the fitted curve at half-maximal effect;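 as to viability (percent of control): 100% = DMSO-treated cells and 0% = medium-only wells without cells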
How it was run: (§1)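 Measured: ATP luminescence (CellTiter-Glo) 10 min after reagent addition, following 48 h drug treatment. Relative luciferase units converted to percent activity, with no-cell wells as full and DMSO wells as zero inhibition.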

[2] = qHTS Screen of the MIPE 4.0 Collection Against Ewings Sarcoma (TC71) (AID 1259253); also: nearly all actives have a fitted effect of over 40% in size; also: potency is read from the fitted curve at half-maximal effect
How it was run: as §1

[3] = qHTS Screen of the MIPE 4.0 Collection Against Ewings Sarcoma (EW8) (AID 1259255); also: nearly all actives have a fitted effect of over 35% in size; also: potency is read from the fitted curve at half-maximal effect;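 as to viability: 100% = DMSO-treated cells and 0% = medium-only wells without cells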
How it was run: as §1

[4] = Identifying Small Molecule Inhibitors of Pancreatic Cancer Stem Cells (A2780, Spheroid) (AID 1259357); details: Potency: A2780 spheroid viability; viability (percent of control): at 46.1 µM (top of the series);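 also: compound exposure lasted 48 h before the ATP luminescence read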; also: potency is read from the fitted curve at half-maximal effect;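 as to viability (percent of control): 100% = DMSO treated cells and 0% = wells without cells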
How it was run: (§2)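 Cytotoxicity read by CellTiter-Glo luminescence after 48 h compound exposure at 37C; percent activity scaled between DMSO-treated cells and cell-free wells. Spheroid formats used cells pre-formed 14 days in stem cell media on hydrogel.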

[5] = Identifying Small Molecule Inhibitors of Pancreatic Cancer Stem Cells (SN12C, Spheroid) (AID 1259360); details: Potency: SN12C spheroid viability; also: potency is read from the fitted curve at half-maximal effect;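 as to viability (% of control): 100% = DMSO-treated cells and 0% = wells without cells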
How it was run: as §2

[6] = Identifying Small Molecule Inhibitors of Pancreatic Cancer Stem Cells (A278, Adherent) (AID 1259361); details: viability (% of control): at 46.1 µM (top of the series); also: nearly all actives have a fitted effect of over 35% in size;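 as to viability (% of control): 100% = DMSO-treated cells and 0% = cell-free media-only wells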
How it was run: (§3)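 After a 4 h attachment period, compounds were pinned into wells and cultures held 48 h under standard incubator conditions. Viability was then measured as CellTiter-Glo luminescence following 10 min at room temperature.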

[7] = Identifying Small Molecule Inhibitors of Pancreatic Cancer Stem Cells (Panc1, Adherent) (AID 1259362); details: Potency: viability; viability, % of control: at 46.1 µM (top of the series); also: potency is read from the fitted curve at half-maximal effect;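 as to viability, % of control: compound exposure lasted 48 h before the viability read; plate controls were DMSO-treated cells for no effect and cell-free media wells for full effect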
How it was run: as §3

[8] = qHTS assay for cell viability of HEK293 cells (AID 743288); details: ATP luminescence (CellTiter-Glo), 18 h; max response: stronger effect = lower value; also: % is scaled to controls: 0 for no effect and ±100 for the full control effect; nearly all actives have a fitted effect of over 50% in size
How it was run: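 Parental HEK293 cells were seeded at 2,000 cells/well, rested at least 5 h at 37 C, then exposed to compounds in DMSO for 18 h at 37 C. Viability was read as ATP-dependent luciferase luminescence after 30 min at room temperature.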

[9] = qHTS Screen of the MIPE 4.0 Collection Against Ewings Sarcoma (TC32) (AID 1259256); also: potency is read from the fitted curve at half-maximal effect; nearly all actives have a fitted effect of over 45% in size
How it was run: as §1

[10] = Natriuretic polypeptide receptor (hNpr1) antagonism - Pilot counterscreen GloSensor control cell line (AID 1347045; calls by dose curve; also: % is scaled to controls: 0 for no effect and ±100 for the full control effect)
How it was run: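 Luminescence was read before and 20 min after adding 50 uM SNP, which stimulates soluble guanylyl cyclase. The HEK293 cells expressing the GloSensor cGMP sensor had been preloaded with 2% reagent for 2 h and treated with compound.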

[11] = P-glycoprotein substrates identified in KB-8-5-11 adenocarcinoma cell line, qHTS therapeutic library screen (AID 1346987); also: nearly all actives have a fitted effect of over 65% in size; also: potency is read from the fitted curve at half-maximal effect
How it was run: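 Steps: plate 500 KB-8-5-11 cells/well in DMEM + 10% FCS (colchicine removed); pin compounds in dose-response; incubate 72 h, 37 degree C, 5% CO2; add CellTiter-Glo, 5 min; read luminescence.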

[12] = qHTS assay to identify small molecule inhibitors of chordoma cells - UCH-1 (AID 1259355); also: nearly all actives have a fitted effect of over 55% in size; also: potency is read from the fitted curve at half-maximal effect
How it was run: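 Luminescent ATP read-out (CellTiter-Glo, 30min at room temperature) measured viability of UCH-1 cells exposed for 48hr to test drugs at 15 concentrations, co-dosed with a five-agent combination of auranofin, camptothecin, doxorubicin, rubitecan and topotecan.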

[13] = molecular target: Hexokinase-4 (Homo sapiens) + Glucokinase regulatory protein (Homo sapiens) (UniProt P35557+Q14397); experiment: qHTS assay for inhibitors of recombinant human GCK-GKRP interaction: HTRF assay (AID 743207); details: recombinant GCK-GKRP HTRF binding, 60 min, with sorbitol-6-phosphate; at 57.5 µM (top of the series);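 also: 0% = DMSO with GCK present and -100% = DMSO wells lacking GCK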
Chain of UniProt P35557 (P35557 whole entry, looked up): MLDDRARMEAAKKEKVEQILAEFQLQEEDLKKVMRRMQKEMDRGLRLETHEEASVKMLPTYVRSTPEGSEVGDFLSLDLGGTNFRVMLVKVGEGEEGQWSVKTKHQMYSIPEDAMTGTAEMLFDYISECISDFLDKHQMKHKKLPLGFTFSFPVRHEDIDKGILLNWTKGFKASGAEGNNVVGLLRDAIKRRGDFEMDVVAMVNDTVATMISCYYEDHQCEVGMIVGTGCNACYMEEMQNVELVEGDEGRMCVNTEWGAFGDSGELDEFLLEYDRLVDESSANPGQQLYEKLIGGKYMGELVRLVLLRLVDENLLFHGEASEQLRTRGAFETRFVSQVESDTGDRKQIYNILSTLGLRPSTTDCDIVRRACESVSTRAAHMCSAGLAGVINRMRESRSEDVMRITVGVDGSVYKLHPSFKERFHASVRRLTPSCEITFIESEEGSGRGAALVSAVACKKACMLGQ
Chain of UniProt P35557 (Q14397 whole entry, looked up): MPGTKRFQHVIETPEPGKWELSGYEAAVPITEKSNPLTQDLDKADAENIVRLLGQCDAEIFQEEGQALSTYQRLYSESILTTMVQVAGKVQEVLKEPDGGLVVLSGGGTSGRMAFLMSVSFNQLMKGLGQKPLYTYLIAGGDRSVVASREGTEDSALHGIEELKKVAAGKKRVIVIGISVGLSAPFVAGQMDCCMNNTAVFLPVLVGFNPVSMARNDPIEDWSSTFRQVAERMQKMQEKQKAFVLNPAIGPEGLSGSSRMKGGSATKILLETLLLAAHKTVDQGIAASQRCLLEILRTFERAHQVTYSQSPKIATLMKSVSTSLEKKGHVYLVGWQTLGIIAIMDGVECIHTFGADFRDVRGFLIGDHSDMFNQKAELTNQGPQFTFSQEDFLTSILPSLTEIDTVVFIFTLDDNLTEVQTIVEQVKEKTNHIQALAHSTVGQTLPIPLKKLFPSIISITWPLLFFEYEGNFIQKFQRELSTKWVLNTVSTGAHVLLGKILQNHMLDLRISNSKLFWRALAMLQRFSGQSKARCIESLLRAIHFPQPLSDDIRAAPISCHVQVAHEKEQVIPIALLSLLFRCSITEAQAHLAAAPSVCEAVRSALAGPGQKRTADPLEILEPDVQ
How it was run: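 GST-GCK and FLAG-GKRP (5 nM each) were combined with 2 uM S6P in pH 7.1 Hepes/MgCl2/KCl/DTT buffer, then compound and anti-FLAG XL665/anti-GST K antibodies were added. After 60 min at room temperature, HTRF 665/615 nm emission was read.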

[14] = Identifying Small Molecule Inhibitors of Pancreatic Cancer Stem Cells (Panc1, Spheroid) (AID 1259359); details: Panc1 spheroid cancer stem cell viability; viability, % of control: at 46.1 µM (top of the series);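 also: potency is read from the fitted curve at half-maximal effect; compound exposure lasted 48 h before reading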
How it was run: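 Adherent (2D) versus sphere (3D) formats; spheres generated 14 d in SCM beforehand. Compound transferred by pin tool after 4 h, 48 h incubation, CellTiter-Glo endpoint.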

[15] = qHTS assay to identify small molecule inhibitors of chordoma cells - UCH-2 (AID 1259356); details: UCH-2 chordoma viability, CellTiter-Glo ATP luminescence, 48 h; also: potency is read from the fitted curve at half-maximal effect
Tags tell the direction and shape of the fitted curve.

O=C(O)CCC1CCC(c2cc(F)ccc2F)(S(=O)(=O)c2ccc(Cl)cc2)CC1 (stereo unspecified)
inconclusive: Potency [1] 4.69 µM [inhibitor, partial curve, poor fit] | Potency [2] 16.6 µM [inhibitor, partial curve, poor fit] | Potency [3] 18.7 µM [inhibitor, partial curve, poor fit] | Potency [4] 0.935 µM [rising, full curve, poor fit] | Potency [5] 0.0033 µM [rising, full curve, poor fit]
inactive: IC50 (viability decrease) [6] | Potency [7]

NCCS(=O)(=O)O
inconclusive: Potency [9] 0.935 µM [inhibitor, full curve, poor fit]
inactive: max response [8] 10.5% | Potency [1] | Potency [2] | Potency [3] | Potency [10]

COc1ccccc1OCCNCC(O)COc1cccc2[nH]c3ccccc3c12 (stereo unspecified)
inconclusive: Potency [1] 18.7 µM [inhibitor, partial curve, poor fit] | Potency [2] 20.9 µM [inhibitor, single point] | Potency [3] 6.62 µM [inhibitor, partial curve, poor fit] | Potency [11] 18.4 µM [inhibitor, single point]

CC(C)OC(=O)C(C(=O)OC(C)C)=C1SC=CS1
inactive: Potency [1] | Potency [2] | Potency [3] | Potency [12]

CN1C2CCC1CC(OC(=O)C(CO)c1ccccc1)C2 (stereo unspecified)
inactive: activity change, negative = inhibition [13] 8.06% and 7.12%
inconclusive: Potency [1] 16.6 µM [inhibitor, partial curve, poor fit] | Potency [2] 18.7 µM [inhibitor, partial curve, poor fit] | Potency [3] 29.6 µM [inhibitor, single point] | Potency [9] 7.43 µM [inhibitor, partial curve, poor fit]

O=C(Nc1cc(Cl)cc2c1[nH]c1cnccc12)c1cccnc1
active: Potency [2] 23.5 µM
inconclusive: Potency [1] 18.7 µM [inhibitor, partial curve, poor fit] | Potency [3] 33.2 µM [inhibitor, single point] | Potency [4] 0.001 µM [cytotoxic] | Potency [14] 0.0074 µM [rising, full curve, poor fit]
inactive: Potency [7] | Potency [11]

CO[C@@H](C(=O)N1Cc2[nH]nc(NC(=O)c3ccc(N4CCN(C)CC4)cc3)c2C1)c1ccccc1
active: Potency [3] 0.0935 µM | IC50 (viability decrease) [6] 0.0935 µM
inconclusive: Potency [1] 0.469 µM [inhibitor, full curve] | Potency [2] 0.418 µM [inhibitor, full curve] | Potency [4] 37.2 µM [rising, single point] | viability, % of control [7] 158% | Potency [11] 37.2 µM [inhibitor, single point]
inactive: Potency [5]

CC(C)(C)c1[nH]cnc1C=c1[nH]c(=O)c(=Cc2ccccc2)[nH]c1=O
active: Potency [14] 0.0019 µM | Potency [5] 14.8 µM | Potency [7] 0.0187 µM | Potency [11] 0.0024 µM
inconclusive: Potency [2] 67.9 µM [inhibitor, single point] | Potency [4] 0.0418 µM [cytotoxic, full curve]
inactive: Potency [1] | Potency [3]

CCC1=C(C)CN(C(=O)NCCc2ccc(S(=O)(=O)NC(=O)NC3CCC(C)CC3)cc2)C1=O (stereo unspecified)
inactive: Potency [2] | Potency [3] | Potency [11]
inconclusive: Potency [1] 37.2 µM [inhibitor, single point] | Potency [12] 0.004 µM [cytotoxic, full curve, poor fit]

O=C(O)c1c(Cl)c(Cl)c(Cl)c(Cl)c1-c1c2cc(I)c(=O)c(I)c-2oc2c(I)c(O)c(I)cc12
inconclusive: Potency [1] 13.2 µM [inhibitor, partial curve] | Potency [2] 14.8 µM [inhibitor, partial curve] | Potency [3] 16.6 µM [inhibitor, partial curve] | Potency [12] 14.1 µM [cytotoxic, full curve, poor fit] | Potency [15] 16.4 µM [cytotoxic, single point] | Potency [11] 14.6 µM [inhibitor, partial curve, poor fit]

CCN(CCO)CCCC(C)Nc1ccnc2cc(Cl)ccc12 (stereo unspecified)
inconclusive: Potency [1] 33.2 µM [inhibitor, single point] | Potency [2] 33.2 µM [inhibitor, single point] | Potency [3] 7.43 µM [inhibitor, partial curve, poor fit] | viability (percent of control) [4] 128% | Potency [5] 0.0026 µM [rising, full curve, poor fit] | Potency [7] 0.0017 µM [rising, full curve, poor fit]
